# Data from the supplement of paper PMC8728848.
# The other results are listed elsewhere or left out.
# B1: Epa15 (Candida glabrata) (protein)
# chain: MGSSHHHHHHSSGLVPRGSHMASDPTTFPLGCSPEFTKTKKGLSMELYRYDYLPPGSYPCWDSAYLNPSYPRTGYKAKKLIATVDGVSGDINFKFNPKFGCKAIPDYLPSNFNYHEPITITNFTMILYGYFMPKTTAFHTFYVTADDLLFMNFGAGNAFDCCRREETADKFGNYAAYSVWGKKSLKNELTVYLHTGVYYPIRLFYNNRDYIAQLDIRFKTEHSNAIITNFTDYFYSVDDSSLGCPGLI
# How the values were obtained:
# Test in all cases: glycan array binding signal (z-score within array); higher = stronger binding
# Conditions in all cases: glycan notation: IUPAC condensed, linker removed
# Gal(a1-6)Glc = target: Gal(a1-6)Glc
# Method in brief: (§1)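 The binding signal is a Z-score computed within each array. Data were drawn from 3228 arrays in the Consortium for Functional Glycomics database, restricted to those with a known protein sequence. Scores were averaged over arrays of the same protein sequence at different concentrations or buffers, and over linkers, and negative values can be taken as non-binding.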
# Gal(b1-2)Gal = target: Gal(b1-2)Gal
# Method in brief: as §1
# Gal(b1-3)Gal = target: Gal(b1-3)Gal
# Method in brief: as §1
# Gal(b1-3)Gal(b1-4)GlcNAc = target: Gal(b1-3)Gal(b1-4)GlcNAc
# Method in brief: as §1
# Gal(b1-3)GalNAc = target: Gal(b1-3)GalNAc
# Method in brief: as §1
# [1] = target: Gal(b1-3)GalNAc(a1-3)[Fuc(a1-2)]Gal(b1-4)Glc
# Method in brief: as §1
# [2] = target: Gal(b1-3)GalNAc(a1-3)[Fuc(a1-2)]Gal(b1-4)GlcNAc
# Method in brief: as §1
# Gal(b1-3)GalNAc(b1-3)Gal = target: Gal(b1-3)GalNAc(b1-3)Gal
# Method in brief: as §1
# [3] = target: Gal(b1-3)GalNAc(b1-3)Gal(a1-4)Gal(b1-4)Glc
# Method in brief: as §1
# [4] = target: Gal(b1-3)GalNAc(b1-3)Gal(b1-4)Glc
# Method in brief: as §1
# [5] = target: Gal(b1-3)GalNAc(b1-3)Gal(b1-4)GlcNAc
# Method in brief: as §1
# [6] = target: Gal(b1-3)GalNAc(b1-4)Gal(b1-4)Glc
# Method in brief: as §1
# [7] = target: Gal(b1-3)GalNAc(b1-4)[Neu5Ac(a2-3)]Gal(b1-4)Glc
# Method in brief: as §1
# Gal(b1-3)GlcNAc = target: Gal(b1-3)GlcNAc
# Method in brief: as §1
# [8] = target: Gal(b1-3)GlcNAc(a1-3)Gal(b1-4)GlcNAc
# Method in brief: as §1
# [9] = target: Gal(b1-3)GlcNAc(a1-6)Gal(b1-4)GlcNAc
# Method in brief: as §1
# Gal(b1-3)GlcNAc(b1-2)Man = target: Gal(b1-3)GlcNAc(b1-2)Man
# Method in brief: as §1
# [10] = target: Gal(b1-3)GlcNAc(b1-2)Man(a1-3)[Gal(b1-3)GlcNAc(b1-2)Man(a1-6)]Man(b1-4)GlcNAc(b1-4)GlcNAc
# Method in brief: as §1
# [11] = target: Gal(b1-3)GlcNAc(b1-2)Man(a1-3)[Gal(b1-3)GlcNAc(b1-2)Man(a1-6)]Man(b1-4)GlcNAc(b1-4)[Fuc(a1-6)]GlcNAc
# Method in brief: as §1
# [12] = target: Gal(b1-3)GlcNAc(b1-2)Man(a1-3)[GlcNAc(b1-4)][Gal(b1-3)GlcNAc(b1-2)Man(a1-6)]Man(b1-4)GlcNAc(b1-4)GlcNAc
# Method in brief: as §1
# [13] = target: Gal(b1-3)GlcNAc(b1-2)[Gal(b1-3)GlcNAc(b1-6)]Man(a1-6)[Gal(b1-3)GlcNAc(b1-2)Man(a1-3)]Man(b1-4)GlcNAc(b1-4)GlcNAc
# Method in brief: as §1
# [14] = target: Gal(b1-3)GlcNAc(b1-3)Gal(b1-3)GlcNAc
# Method in brief: as §1
# [15] = target: Gal(b1-3)GlcNAc(b1-3)Gal(b1-4)Glc
# Method in brief: as §1
# [16] = target: Gal(b1-3)GlcNAc(b1-3)Gal(b1-4)GlcNAc
# Method in brief: as §1
# [17] = target: Gal(b1-3)GlcNAc(b1-3)Gal(b1-4)GlcNAc(b1-2)Man(a1-3)[Gal(b1-3)GlcNAc(b1-3)Gal(b1-4)GlcNAc(b1-2)Man(a1-6)]Man(b1-4)GlcNAc(b1-4)GlcNAc
# Method in brief: as §1
# [18] = target: Gal(b1-3)GlcNAc(b1-3)Gal(b1-4)GlcNAc(b1-2)[Gal(b1-3)GlcNAc(b1-3)Gal(b1-4)GlcNAc(b1-6)]Man(a1-6)[Gal(b1-3)GlcNAc(b1-3)Gal(b1-4)GlcNAc(b1-2)Man(a1-3)]Man(b1-4)GlcNAc(b1-4)[Fuc(a1-6)]GlcNAc
# Method in brief: as §1
# [19] = target: Gal(b1-3)GlcNAc(b1-3)Gal(b1-4)GlcNAc(b1-3)Gal(b1-4)GlcNAc(b1-2)[Gal(b1-3)GlcNAc(b1-3)Gal(b1-4)GlcNAc(b1-3)Gal(b1-4)GlcNAc(b1-6)]Man(a1-6)[Gal(b1-3)GlcNAc(b1-3)Gal(b1-4)GlcNAc(b1-3)Gal(b1-4)GlcNAc(b1-2)Man(a1-3)]Man(b1-4)GlcNAc(b1-4)[Fuc(a1-6)]GlcNAc
# Method in brief: as §1
# [20] = target: Gal(b1-3)GlcNAc(b1-3)Gal(b1-4)GlcNAc(b1-6)[Gal(b1-3)GlcNAc(b1-3)]Gal(b1-4)Glc
# Method in brief: as §1
# [21] = target: Gal(b1-3)GlcNAc(b1-3)Gal(b1-4)[Fuc(a1-3)]GlcNAc
# Method in brief: as §1
# [22] = target: Gal(b1-3)GlcNAc(b1-3)Gal(b1-4)[Fuc(a1-3)]GlcNAc(b1-6)[Gal(b1-3)GlcNAc(b1-3)]Gal(b1-4)Glc
# Method in brief: as §1
# [23] = target: Gal(b1-3)GlcNAc(b1-3)GalNAc
# Method in brief: as §1
# [24] = target: Gal(b1-3)GlcNAc(b1-6)Gal(b1-4)GlcNAc
# Method in brief: as §1
# [25] = target: Gal(b1-3)GlcNAc(b1-6)GalNAc
# Method in brief: as §1
# [26] = target: Gal(b1-3)GlcNAc(b1-6)[Gal(b1-3)]GalNAc
# Method in brief: as §1
# Gal(b1-3)GlcNAc6S = target: Gal(b1-3)GlcNAc6S
# Method in brief: as §1
# [27] = target: Gal(b1-3)[Fuc(a1-4)]GlcNAc
# Method in brief: as §1
# [28] = target: Gal(b1-3)[Fuc(a1-4)]GlcNAc(b1-2)Man
# Method in brief: as §1
# [29] = target: Gal(b1-3)[Fuc(a1-4)]GlcNAc(b1-2)Man(a1-3)[Gal(b1-3)[Fuc(a1-4)]GlcNAc(b1-2)Man(a1-6)]Man(b1-4)GlcNAc(b1-4)[Fuc(a1-6)]GlcNAc
# Method in brief: as §1
# [30] = target: Gal(b1-3)[Fuc(a1-4)]GlcNAc(b1-3)Gal(b1-3)[Fuc(a1-4)]GlcNAc
# Method in brief: as §1
# [31] = target: Gal(b1-3)[Fuc(a1-4)]GlcNAc(b1-3)Gal(b1-4)GlcNAc
# Method in brief: as §1
# [32] = target: Gal(b1-3)[Fuc(a1-4)]GlcNAc(b1-3)Gal(b1-4)[Fuc(a1-3)]GlcNAc
# Method in brief: as §1
# [33] = target: Gal(b1-3)[Fuc(a1-4)]GlcNAc(b1-6)GalNAc
# Method in brief: as §1
# [34] = target: Gal(b1-3)[GlcNAc(b1-6)]GalNAc
# Method in brief: as §1
# [35] = target: Gal(b1-3)[GlcNAc(b1-6)]GlcNAc
# Method in brief: as §1
# [36] = target: Gal(b1-3)[Neu5Ac(a2-6)]GalNAc
# Method in brief: as §1
binder,measurement,setting,value
B1,glycan array binding signal (z-score),Gal(a1-6)Glc,-0.18
same,glycan array binding signal (z-score),Gal(b1-2)Gal,-0.012
same,glycan array binding signal (z-score),Gal(b1-3)Gal,0.79
same,glycan array binding signal (z-score),Gal(b1-3)Gal(b1-4)GlcNAc,0.625
same,glycan array binding signal (z-score),Gal(b1-3)GalNAc,0.487
same,glycan array binding signal (z-score),[1],0.181
same,glycan array binding signal (z-score),[2],-0.431
same,glycan array binding signal (z-score),Gal(b1-3)GalNAc(b1-3)Gal,1.73
same,glycan array binding signal (z-score),[3],1.56
same,glycan array binding signal (z-score),[4],-0.277
same,glycan array binding signal (z-score),[5],-0.27
same,glycan array binding signal (z-score),[6],2.64
same,glycan array binding signal (z-score),[7],1.75
same,glycan array binding signal (z-score),Gal(b1-3)GlcNAc,-0.253
same,glycan array binding signal (z-score),[8],0.197
same,glycan array binding signal (z-score),[9],-0.116
same,glycan array binding signal (z-score),Gal(b1-3)GlcNAc(b1-2)Man,0.38
same,glycan array binding signal (z-score),[10],1.33
same,glycan array binding signal (z-score),[11],-0.206
same,glycan array binding signal (z-score),[12],-0.337
same,glycan array binding signal (z-score),[13],1.39
same,glycan array binding signal (z-score),[14],-0.025
same,glycan array binding signal (z-score),[15],0.01
same,glycan array binding signal (z-score),[16],-0.487
same,glycan array binding signal (z-score),[17],-0.36
same,glycan array binding signal (z-score),[18],0.867
same,glycan array binding signal (z-score),[19],0.538
same,glycan array binding signal (z-score),[20],0.468
same,glycan array binding signal (z-score),[21],-0.167
same,glycan array binding signal (z-score),[22],0.111
same,glycan array binding signal (z-score),[23],1.46
same,glycan array binding signal (z-score),[24],0.87
same,glycan array binding signal (z-score),[25],0.16
same,glycan array binding signal (z-score),[26],1.09
same,glycan array binding signal (z-score),Gal(b1-3)GlcNAc6S,0.374
same,glycan array binding signal (z-score),[27],-0.397
same,glycan array binding signal (z-score),[28],0.38
same,glycan array binding signal (z-score),[29],0.253
same,glycan array binding signal (z-score),[30],0.068
same,glycan array binding signal (z-score),[31],-0.264
same,glycan array binding signal (z-score),[32],-0.318
same,glycan array binding signal (z-score),[33],0.857
same,glycan array binding signal (z-score),[34],-0.042
same,glycan array binding signal (z-score),[35],0.08
same,glycan array binding signal (z-score),[36],0.637
